Reference: the RNAGym collection of RNA variant scans (doi:10.1093/nar/gkz1192)
Read counts are not given, so values of variants with three or more changes are uncertain.

B1: CPEB3 Ribozyme (parent)
chain: UAACAGGGGGCCACAGCAGAAGCGUUCACGUCGCAGCCCCUGUCAGAUUCUGGUGAAUCUGCGAAUUCUGCUGUAUAUCUC

Variants of: B1
Assay: self-cleavage, relative activity (ratio to wild type); higher = more cleavage; in vitro, sequencing
Outline: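 Relative activity was defined as the cleaved/total read fraction for a variant divided by the same fraction for the unmutated ribozyme. CPEB3 self-cleaving ribozyme libraries were made by rounds of error-prone PCR, barcoded, and transcribed in vitro with T7 RNA polymerase for 5 hours at 37°C, and cleavage ran through transcription plus a 15 min DNase I step before EDTA. Illumina sequencing of template-switched reverse transcripts gave the reads, and DNA sequencing mapped the barcodes. Averages come from three batches, using variants with at least 5 reads.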
A20G U51C U60C gave a self-cleavage of 0.29. A20G U51G A65G showed a self-cleavage of 0.37. Variant A20G U51G U60C has a self-cleavage of 0.3. A20G U54A A64G A65G gave a self-cleavage of 0.16. For A20G U54A U60A G63A U66C, the self-cleavage was 0.31. Work on A20G U54A U66A U78C yielded a self-cleavage of 0.3. Variant A20G U54A U74C U76C has a self-cleavage of 0.98. Work on A20G U54C A56U A57C U58C yielded a self-cleavage of 0.12. With A20G U54C A64G C71A the self-cleavage was 0.37. Variant A20G U54C A64U U67C A75C has a self-cleavage of 0.22. With A20G U54C C81A the self-cleavage was 1.2. Variant A20G U54C G55U U60C U72C has a self-cleavage of 0.12. In the case of A20G U54C U58A, the self-cleavage is reported as 0.3. With A20G U54C U58C the self-cleavage was 0.5. A20G U54C U72C gave a self-cleavage of 0.97. For A20G U54C U76A, the self-cleavage was 0.91. With A20G U54C U76C the self-cleavage was 0.99. For A20G U54G U60C U80C, the self-cleavage was 0.14. Work on A20G U54G U69A yielded a self-cleavage of 0.23. With A20G U58A U69A U72A the self-cleavage was 0.11. With A20G U58C G63A the self-cleavage was 0.31. For A20G U58C U80C, the self-cleavage was 0.43. In the case of A20G U58G A77U, the self-cleavage is reported as 0.2. A20G U58G G63A G70U U72C A77U U80C showed a self-cleavage of 0.13. For A20G U60A G61U, the self-cleavage was 0.04. A20G U60A U69A gave a self-cleavage of 0.34. For A20G U60C A64G U80C, the self-cleavage was 0.19. With A20G U60C U67C the self-cleavage was 0.4. For A20G U60C U76C U78C, the self-cleavage was 0.13. Work on A20G U60G U80C yielded a self-cleavage of 0.62. In the case of A20G U66C U72A, the self-cleavage is reported as 0.32. With A20G U67A U72C the self-cleavage was 0.58. A20G U67C U78G gave a self-cleavage of 0.81. Variant A20G U67C U80G has a self-cleavage of 1.14. Variant A20G U69A U74A has a self-cleavage of 0.33. With A20G U69C U72C U78C the self-cleavage was 0.24. With A20G U69C U80A the self-cleavage was 0.69. For A20G U72C A75U, the self-cleavage was 1.02. A20G U72C U76A gave a self-cleavage of 1.06. For A20G U72C U78A, the self-cleavage was 1.12. Work on A20G U72C U80C yielded a self-cleavage of 1.14. Work on A20G U74C A75G yielded a self-cleavage of 1.12. A20G U74C U76A gave a self-cleavage of 1.18. In the case of A20U A21C U26C A57G, the self-cleavage is reported as 0.16. In the case of A20U A21G A28G, the self-cleavage is reported as 0.05. In the case of A20U A21G A28U U41C U72C, the self-cleavage is reported as 0.2. With A20U A21G A45G U72C the self-cleavage was 0.09. In the case of A20U A21G C29U U43C U49C A64G U78C, the self-cleavage is reported as 0.1. A20U A21G C40U U41C G42U gave a self-cleavage of 0.16. With A20U A21G G24A A35G U43A G52A A56G the self-cleavage was 0.04. Variant A20U A21G G24A G30A A45U U54C U80A has a self-cleavage of 0.13. For A20U A21G G61A, the self-cleavage was 0.16. With A20U A21G G70U the self-cleavage was 0.21. Variant A20U A21G U25C U41A G42C U66C U72G has a self-cleavage of 0.05. Work on A20U A21G U26C U78C yielded a self-cleavage of 0.17. In the case of A20U A21G U41A U54C, the self-cleavage is reported as 0.05. For A20U A21G U41C U54C, the self-cleavage was 0.4. With A20U A21G U41C U69C A75U the self-cleavage was 0.12. Variant A20U A21G U51C has a self-cleavage of 0.23. For A20U A21G U67C, the self-cleavage was 0.19. Variant A20U A21G U67C U78A has a self-cleavage of 0.05. Variant A20U A21G U72C has a self-cleavage of 0.45. A20U A21U A28G U31A U41A U43A A65G showed a self-cleavage of 0.1. A20U A21U A47G U80A gave a self-cleavage of 0.14. Work on A20U A28C A47G U76C yielded a self-cleavage of 0.27. For A20U A28C U41A A45C A64G U80C, the self-cleavage was 0.05. A20U A28G A35G A45C U51C gave a self-cleavage of 0. In the case of A20U A28G A35G U48C A56U, the self-cleavage is reported as 0.04. With A20U A28G A35G U54A the self-cleavage was 0.75. A20U A28G A35U U48C C50U showed a self-cleavage of 0.15. For A20U A28G A45U U48C G63U, the self-cleavage was 0.24. Work on A20U A28G A57G yielded a self-cleavage of 0.31. In the case of A20U A28G G46U A64U, the self-cleavage is reported as 0.09. A20U A28G U31A A57G A65G U72C gave a self-cleavage of 0.06. For A20U A28G U31C A56G U74C A75U, the self-cleavage was 0.09. A20U A28G U31C G33A U58C U74A U78A gave a self-cleavage of 0.17. A20U A28G U41A gave a self-cleavage of 0.06. With A20U A28G U41A A45G U69A the self-cleavage was 0.05. Variant A20U A28G U43C U60C has a self-cleavage of 0.06. For A20U A28G U43C U69A, the self-cleavage was 0.05. A20U A28G U48A C50U G55U A65G showed a self-cleavage of 0.08. Variant A20U A28G U48C has a self-cleavage of 0.05. Work on A20U A28G U48C G63A U66G A77G yielded a self-cleavage of 0. In the case of A20U A28G U51C U54C U80C, the self-cleavage is reported as 0.1. Variant A20U A28G U54C U72C has a self-cleavage of 0.4. A20U A28G U74C U76C showed a self-cleavage of 0. Variant A20U A28G U78C has a self-cleavage of 0.09. With A20U A28U A35G the self-cleavage was 0.45. A20U A28U A47U U66C gave a self-cleavage of 0.09. Variant A20U A28U A57G has a self-cleavage of 0.14. In the case of A20U A28U A77U, the self-cleavage is reported as 0.4. In the case of A20U A28U C39A U41A U48C, the self-cleavage is reported as 0.13. With A20U A28U C39A U48A A56U U60G the self-cleavage was 0.07. For A20U A28U U31C A45G U48C A56G, the self-cleavage was 0.21. In the case of A20U A28U U31C A47G A56U U78C, the self-cleavage is reported as 0.06. A20U A28U U80A showed a self-cleavage of 0.32. Work on A20U A35G A45G C62A yielded a self-cleavage of 0.13. Work on A20U A35G A45G C62U yielded a self-cleavage of 0.27. For A20U A35G A45G U51C A65G U78C, the self-cleavage was 0.16. In the case of A20U A35G A45U U58C C59A U76C, the self-cleavage is reported as 0.17. For A20U A35G A47G U78C, the self-cleavage was 0.32. A20U A35G A57U A77G showed a self-cleavage of 0.47. A20U A35G G36A C38U U74C U78G showed a self-cleavage of 0.09. A20U A35G G36C gave a self-cleavage of 0.11. In the case of A20U A35G G46A U72C, the self-cleavage is reported as 0.18. A20U A35G U51A U69A U72C gave a self-cleavage of 0.3. With A20U A35G U78A the self-cleavage was 1.05. A20U A35U A45G gave a self-cleavage of 0.14. For A20U A35U A56U, the self-cleavage was 0.14. Work on A20U A35U A77U yielded a self-cleavage of 0.22. With A20U A35U G52C A77G the self-cleavage was 0.1. For A20U A35U G53A, the self-cleavage was 0.1. With A20U A35U G63A A65G U69A the self-cleavage was 0.14. Work on A20U A35U U41C yielded a self-cleavage of 0.18. With A20U A35U U41C U78A the self-cleavage was 0.08. Variant A20U A35U U54C has a self-cleavage of 0.08. With A20U A35U U60C U80A the self-cleavage was 0.08. With A20U A45G G46U the self-cleavage was 0.27. With A20U A45G U67C U72C A77G the self-cleavage was 0.04. A20U A45G U72C U78C gave a self-cleavage of 0.34. For A20U A45G U78C, the self-cleavage was 0.23. Work on A20U A45U A47G yielded a self-cleavage of 0.12. Work on A20U A45U G55U yielded a self-cleavage of 0.19. Work on A20U A45U U49A yielded a self-cleavage of 0.07. A20U A45U U66C gave a self-cleavage of 0.17. Work on A20U A45U U69G yielded a self-cleavage of 0.12. A20U A47G A75G gave a self-cleavage of 0.42. A20U A47G U48A U69A A75G showed a self-cleavage of 0.03. Work on A20U A47G U51A U60A yielded a self-cleavage of 0.18. In the case of A20U A47G U76C, the self-cleavage is reported as 0.26. Variant A20U A47G U78C has a self-cleavage of 0.2. With A20U A47U U51A U60A A64G U80A the self-cleavage was 0.07. Work on A20U A56G A77G yielded a self-cleavage of 0.14. For A20U A56G U58A U69A, the self-cleavage was 0.08. For A20U A56G U66C U76C U80A, the self-cleavage was 0.19. With A20U A56G U69A U80C the self-cleavage was 0.17. Work on A20U A56G U69C yielded a self-cleavage of 0.07. A20U A56G U78C gave a self-cleavage of 0.11. With A20U A56U A65G U67C A75U the self-cleavage was 0.21. With A20U A56U U60C U69A the self-cleavage was 0.11. For A20U A56U U78A, the self-cleavage was 0.25. Work on A20U A57G G63A yielded a self-cleavage of 0.17. For A20U A57G G63U, the self-cleavage was 0.08. A20U A57G U66A showed a self-cleavage of 0.31. A20U A64U U66C U72C gave a self-cleavage of 0.11. A20U A64U U76C U80C gave a self-cleavage of 0.19. A20U A65G U76C A77U showed a self-cleavage of 0.16. In the case of A20U C23U U25A U26G U43C A64G, the self-cleavage is reported as 0.17. A20U C23U U31C gave a self-cleavage of 0.16. Variant A20U C23U U66C U69A U72A has a self-cleavage of 0.18. With A20U C27A A57G the self-cleavage was 0.14. For A20U C27G A47U, the self-cleavage was 0.17. A20U C27U A56C showed a self-cleavage of 0.05. A20U C27U C62U gave a self-cleavage of 0.11. With A20U C27U U60A U67C U74C the self-cleavage was 0.35. With A20U C29U A35G U60C U78C the self-cleavage was 0.08. A20U C29U U72C U80C gave a self-cleavage of 0.06. For A20U C32A A45G A56G A57G, the self-cleavage was 0.16. For A20U C32U C40A U48C G73A, the self-cleavage was 0.1. With A20U C32U U43A the self-cleavage was 0.15. With A20U C34G U41C A56U U76C the self-cleavage was 0.07. In the case of A20U C34U C44U U54G A64U A65G, the self-cleavage is reported as 0.27. For A20U C37A C39A U67C, the self-cleavage was 0.09. Work on A20U C37G U49A U76C yielded a self-cleavage of 0.15. Work on A20U C37U U41A C62G U74G yielded a self-cleavage of 0.18. For A20U C39U A56U U72A, the self-cleavage was 0.08. Work on A20U C40G A64U U74A yielded a self-cleavage of 0.27.
